Results as given in PMC4336329 (PLoS ONE, 2015).
About 2,200 (0.71%) of roughly 310,000 compounds showed an effect of 50% or more. Effects have a minus sign here. The list shows a part of the results.

molecular target: human ether-à-go-go-related gene (hERG) potassium channel (human, UniProt Q12809); test: primary screen, population patch clamp on CHO cells stably expressing hERG
Sequence (Q12809 whole entry, looked up): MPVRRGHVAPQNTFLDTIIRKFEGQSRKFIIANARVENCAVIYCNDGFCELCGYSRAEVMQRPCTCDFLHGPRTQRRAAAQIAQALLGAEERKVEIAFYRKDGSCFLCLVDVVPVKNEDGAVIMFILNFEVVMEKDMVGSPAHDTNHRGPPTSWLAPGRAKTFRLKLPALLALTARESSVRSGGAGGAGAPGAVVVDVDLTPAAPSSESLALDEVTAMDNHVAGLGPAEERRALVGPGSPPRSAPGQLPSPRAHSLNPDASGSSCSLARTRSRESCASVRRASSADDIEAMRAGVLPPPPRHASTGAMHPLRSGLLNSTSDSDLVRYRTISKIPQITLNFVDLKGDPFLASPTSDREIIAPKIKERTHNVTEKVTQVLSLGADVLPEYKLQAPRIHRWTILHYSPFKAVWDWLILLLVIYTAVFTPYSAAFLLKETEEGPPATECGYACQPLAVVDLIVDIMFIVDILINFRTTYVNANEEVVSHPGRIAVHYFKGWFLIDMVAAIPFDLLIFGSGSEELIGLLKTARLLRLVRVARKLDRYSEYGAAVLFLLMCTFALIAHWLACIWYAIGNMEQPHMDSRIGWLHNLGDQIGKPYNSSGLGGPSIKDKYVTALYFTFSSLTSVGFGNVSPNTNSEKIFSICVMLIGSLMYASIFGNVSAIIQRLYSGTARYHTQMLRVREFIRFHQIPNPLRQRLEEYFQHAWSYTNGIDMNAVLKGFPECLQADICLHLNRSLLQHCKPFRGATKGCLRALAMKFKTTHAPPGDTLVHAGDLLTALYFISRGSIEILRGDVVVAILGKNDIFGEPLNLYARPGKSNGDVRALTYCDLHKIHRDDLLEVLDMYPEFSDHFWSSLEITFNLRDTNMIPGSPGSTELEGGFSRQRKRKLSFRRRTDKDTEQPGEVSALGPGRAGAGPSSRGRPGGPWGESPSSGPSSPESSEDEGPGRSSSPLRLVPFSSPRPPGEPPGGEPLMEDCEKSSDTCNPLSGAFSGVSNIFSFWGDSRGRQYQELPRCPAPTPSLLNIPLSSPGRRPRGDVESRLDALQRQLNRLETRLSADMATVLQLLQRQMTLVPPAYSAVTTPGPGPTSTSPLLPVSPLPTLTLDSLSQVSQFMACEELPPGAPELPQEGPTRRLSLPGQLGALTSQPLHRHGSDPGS

Structure (SMILES)	hERG current change (%, negative = inhibition) at 1uM [%]
Cc1cc(Br)ccc1NC(=S)NCCc1ccccc1	14.7
Cc1ccc(N=Cc2cc3c(cc2O)OC(N)=C(C#N)C3c2ccccc2)cc1 (stereo not drawn)	4.26
Cc1ccc(CSCCNS(=O)(=O)c2ccccc2)cc1	1.55
CCOC(=O)C(Cc1ccccc1)NC(=O)CCc1c(C)nc2ncnn2c1C (stereo not drawn)	8.53
CN(CCc1ccccn1)C(=O)CCC1CCCN(C(=O)CN2CCCCCC2)C1 (stereo not drawn)	10
OCC#CCSc1nnc(-c2ccccc2Br)o1	10.7
CCOC(=O)N1CCN(C(=S)NC(=O)/C=C/c2ccc(C)cc2)CC1	17.3
COc1ccc(OC)c(NC(=O)NCCN2CCN(c3ccccc3)CC2)c1	8.91
O=C1CSC(=S)N1c1cccc(O)c1	12.3
O=C(c1cccs1)N1CCN(c2ccc(F)cc2)CC1	-2.86
O=C(c1ccccc1)N1CCC(c2nc(-c3ccc(S(=O)(=O)NCC4CCCO4)cc3)no2)CC1 (stereo not drawn)	7.92
Cc1cc(Cl)c2oc(C(=O)NC(C)c3ccncn3)c(C)c2c1 (stereo not drawn)	9.96
CCOC(=O)N1CCN(C(=O)CN(c2ccc(OCC)cc2)S(C)(=O)=O)CC1	-12.4
COc1ccc(Oc2ccccc2C#N)cc1	5.57
COc1ccc2c(c1OC)C(=O)N(c1cccc(NC(C)=O)c1)C2	12.4
COCC(=O)Nc1c(I)c(C(=O)NCC(O)CO)c(I)c(C(=O)N(C)CC(O)CO)c1I (stereo not drawn)	16.5
NC(=O)CN1CCN(c2ccccc2F)CC1	5.76
Cc1cccc(OCC(=O)N(Cc2nnc(-c3ccccc3Cl)o2)C2CC2)c1	4.44
O=C1CC(N2CCN(c3ccccc3)CC2)C(=O)N1c1ccc2c(c1)OCO2 (stereo not drawn)	20
Cc1cccc(NC(=O)CNC(=O)CCNC(=O)c2ccc(C(C)(C)C)cc2)c1C	5.45
CC(C)(C)c1ccc(OCC(=O)Nc2ccc(-c3nc4cccnc4o3)cc2)cc1	5.33
O=C(NCc1ccccc1F)c1cccc(S(=O)(=O)NCc2ccccc2)c1	7.27

Structure (SMILES)	hERG current change (%, negative = inhibition) at 1uM [%]
O=C(NC1=NCCS1)c1ccccc1Cl	15.3
N=C1/C(=C/c2ccc(-c3cccc(C(=O)O)c3)o2)C(=O)N=C2SC=C(c3ccccc3)N12	13.2
Cc1nn(-c2ccccc2)c(C)c1/C=N/NC(=O)CSc1nnc(SCc2cccc3ccccc23)s1	5.62
CCc1ccc(CN2CCN(C(=O)c3cccc(OC)c3OC)CC2)cc1.O=C(O)C(=O)O	-0.969
Cc1ccc(CNC(=O)Cc2nc3nc(C)cc(C)n3n2)cc1	7.83
CCC1(c2ccc(Cl)cc2)NC(=S)N(c2ccccc2)N1 (stereo not drawn)	15.8
COc1ccc(/C=N/NC(=O)c2ccc3nc[nH]c3c2)c(OC)c1	21.5
O=C(NCc1cccnc1)c1cc(S(=O)(=O)N2CCCCC2)ccc1Cl	10.9
O=C(NCC(c1ccco1)N1CCCC1)c1cc2cc(Cl)ccc2o1 (stereo not drawn)	-3.88
Cc1ccc(S(=O)(=O)CCC(=O)NCc2ccc(Cl)cc2)cc1	12.8
CCCC(=O)Nc1cccc(C(=O)Nc2nccs2)c1	9.96
COc1cc([N+](=O)[O-])ccc1Nc1nc(C)cc(C)n1.Cl	15.4
Cc1ccc2c(c1)c(N=NC(N)=O)c(O)n2C	14.2
Cn1nc(CC(=O)NCc2ccc(F)cc2)c2ccccc2c1=O	0.499
CC(=O)C1=C(O)C(=O)N(c2ccccn2)C1c1ccc(C)cc1 (stereo not drawn)	10.5
O=C(c1ccc(Cl)cc1)C1CCN(C(=O)C2CC2)CC1	-3.66
CCn1cc(S(=O)(=O)c2ccc(C)cc2)c(=O)c2cc(F)c(N3CCN(C)CC3)cc21	2.95
Cc1ccc(C(=O)NN2C(=O)C3C4C=CC(C4)[C@@H]3C2=O)cc1 (stereo partly drawn)	3.83
CCCCn1c(C)c(C(=O)OCC)c2c(CN3CCOCC3)c(O)ccc21	-14.1
CC12CCC(=O)N1C(C(=O)OCc1c(Cl)cccc1Cl)CS2 (stereo not drawn)	8.54
O=C(NC(=S)Nc1ccccc1Br)c1ccco1	15.4
O=C(CSc1n[nH]c(-c2ccncc2)n1)Nc1ccc(Cl)c(C(=O)O)c1	15.8

Structure (SMILES)	hERG current change (%, negative = inhibition) at 1uM [%]
COc1cccc(CNC(=O)N2CCN(S(=O)(=O)c3ccc(Cl)cc3)CC2)c1	9.67
COc1ccc(S(=O)(=O)NC2CCCCCC2)cc1C(N)=O	9.49
CCOC(=O)c1cn(Cc2ccccc2)nc1-c1ccccc1	14.5
Brc1ccc2nc(CSc3ncn[nH]3)cn2c1	11.4
Cc1ccc(OCC(=O)N2CCN(S(=O)(=O)c3ccccc3)CC2)c([N+](=O)[O-])n1	-12.4
Cc1ccc2c(c1)N(CC(=O)N(Cc1ccc3c(c1)OCO3)CC1CCCO1)C(=O)C(C)O2 (stereo not drawn)	-4.02
COc1ccc(NS(=O)(=O)c2cccc(C(=O)N/N=C/c3cn(-c4ccccc4)nc3-c3ccc(OC)cc3)c2)cc1	7.24
O=C(O)C(=O)O.Oc1ccccc1CN(CCc1ccccc1)Cc1ccccc1	14.4
CC(c1ccon1)N(C)Cc1c(C(=O)N(C)Cc2ccccc2)nc2ccccn12 (stereo not drawn)	8.53
COc1ccc(COC(=O)c2ccc3c(=O)n4c(nc3c2)CCC4)cc1F	-0.857
CCOC(=O)CN(C(=O)CNC(=O)c1ccco1)C(C(=O)NC1CCCCC1)c1cccs1 (stereo not drawn)	11.8
O=C(Nc1ccc(Cl)cn1)c1cccc(OCc2ccccc2)c1	-3
Cc1ccc(CNC(=S)Nc2ccc(NS(=O)(=O)c3ccc(C)cc3)cc2)cc1	-14.8
Cc1ccc(S(=O)(=O)Nc2cccc3ncccc23)cc1	6.95
COCCNC(=O)c1c(C)cc(C)cc1C	11.8
O=C(O)CCCNC(=O)/C(=C\c1ccc(Cl)cc1)NC(=O)c1ccc(Br)cc1	5.19
CC1=CC(C)(C)N2C(=O)C3(C(C#N)=C(N)Oc4cc(C)oc(=O)c43)c3cc(C)cc1c32 (stereo not drawn)	-3.49
CC1(C(=O)N(CC(=O)NC2CCCC2)Cc2ccc(Cl)cc2)CC(=O)N=C2C=CC=CN21 (stereo not drawn)	5.14
CC(OC(=O)c1ccc(Cl)c(S(=O)(=O)Nc2ccc(F)cc2)c1)C(=O)NC(N)=O (stereo not drawn)	1.75
CN1CCN(C(=O)Cc2nc3ccccc3[nH]2)CC1	-0.431
COc1cc(-c2[nH]ncc2CN2CCN(c3cccc(C)n3)CC2)cc(OC)c1OC	-22.7
COc1ccc(-n2ncc3c2CC(C)(C)CC3NC(=O)Cc2nonc2C)cc1 (stereo not drawn)	9.99

Structure (SMILES)	hERG current change (%, negative = inhibition) at 1uM [%]
CN(CCCNC(=O)Cn1cc2c(n1)CCCC2)C1CCCCC1	-6.24
CCOc1ccc(N(CC(=O)NCc2ccccc2Cl)S(=O)(=O)c2c(C)noc2C)cc1	18.9
COC(=O)C1=C(C)NC(=O)C1(NS(=O)(=O)c1ccc(C)cc1)C(F)(F)F (stereo not drawn)	10
O=C(CSc1ccccc1)Nc1nnc(/C=C/c2ccccc2)s1	-0.537
COc1cc2c(cc1OC)C(c1cc3cc4c(cc3[nH]c1=O)OCO4)N(C(=O)C1CC1)CC2 (stereo not drawn)	4.07
COC(=O)c1cccc(C23CC4(C2)[C@H](CN(Cc2ccc(C(F)(F)F)cc2)[C@@H]4c2ccccc2)C3c2ccc(Cl)nc2)c1 (stereo partly drawn)	7.12
Cn1c(SCc2ccc(F)cc2)nnc1-c1cnccn1	6.44
Cc1[nH]c2ccccc2c1C(=O)COC(=O)C1CC(=O)N(Cc2ccco2)C1 (stereo not drawn)	4.33
CCOCCn1ccc2c(OCC(=O)Nc3ccccc3F)cccc2c1=O	8.05
O=C(O)C(Cc1ccc(O)cc1)N1C(=O)c2c(Cl)c(Cl)c(Cl)c(Cl)c2C1=O (stereo not drawn)	-1.88
Cc1[nH]c(=S)sc1Cc1ccc(Cl)c(Cl)c1	8.2
COC(=O)c1ccc(C2C(Oc3ccc(OC)cc3)C(=O)N2CCc2ccc(F)cc2)cc1 (stereo not drawn)	12.3
CSCCCNC(=S)N1CCN(c2ccc(C(C)=O)cc2)CC1	-0.341
O=C(ONC1=NCCCCC1)c1ccc(Cl)cc1	6.97
Cc1ccc(C(NC(=O)c2ccccc2)C(Cl)(Cl)Cl)cc1 (stereo not drawn)	3.87
CCCCCCCC(=O)N/N=C/c1ccncc1	-1.99
Cc1nc2ccccn2c1CN(C)C(=O)C1CCC(=O)N(CCc2cccc(F)c2)C1 (stereo not drawn)	-10.4
COc1ccccc1CNC(=O)CN1C(=O)COc2ccc(S(=O)(=O)NC3CCCC3)cc21	10.9
COC(=O)c1cc(NC(=O)c2cccnc2)ccc1N1CCOCC1	5.65
Fc1ccc(NC(=S)Nc2cccc3ccccc23)cc1	14.1
O=C(c1ccc(-n2cccn2)cc1)N1CCc2ccccc2C1	-1.88
